# Reference: the supplement of paper PMC6746778
# The other results are listed elsewhere or left out. Most values come without repeats; read them as rough.
# How the values were obtained:
# Assay in all cases: proliferation Z-score within cell line (SRB, relative to all inhibitors screened on that line); triple-negative breast cancer lines and a kinase inhibitor library; SRB is the sulforhodamine B protein stain; higher = less growth inhibition (more resistant)
# Details in all cases: concentration: 1 µM; 4 days
# Bt20 = test system: Bt20
# Bt549 = test system: Bt549
# HCC1143 = test system: HCC1143
# HCC1806 = test system: HCC1806
# HCC1937 = test system: HCC1937
# HCC38 = test system: HCC38
# HCC70 = test system: HCC70
# Hs578T = test system: Hs578T
# MDA-MB-231 = test system: MDA-MB-231
# MDA-MB-435s = test system: MDA-MB-435s
# MDA-MB-436 = test system: MDA-MB-436
# MDA-MB-453 = test system: MDA-MB-453
# MDA-MB-468 = test system: MDA-MB-468
# SKBR7 = test system: SKBR7
# SUM1315MO2 = test system: SUM1315MO2
# SUM149PT = test system: SUM149PT
# SUM159PT = test system: SUM159PT
# SUM185PE = test system: SUM185PE
# SUM229PE = test system: SUM229PE
# SUM52PE = test system: SUM52PE
# 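Further: Single-dose primary screen of a 378-member kinase inhibitor library in 96-well plates, with growth read as absorbance of protein-bound SRB dye after TCA fixation.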
smiles,measurement,setting,value
Oc1ccc(-c2nc(-c3ccc(F)cc3)c(-c3ccncc3)[nH]2)cc1,proliferation Z-score within cell line,Bt20,1.33
same,proliferation Z-score within cell line,Bt549,0.352
same,proliferation Z-score within cell line,HCC1143,0.926
same,proliferation Z-score within cell line,HCC1806,0.877
same,proliferation Z-score within cell line,HCC1937,0.658
same,proliferation Z-score within cell line,HCC38,0.552
same,proliferation Z-score within cell line,HCC70,0.739
same,proliferation Z-score within cell line,Hs578T,0.694
same,proliferation Z-score within cell line,MDA-MB-231,0.67
same,proliferation Z-score within cell line,MDA-MB-435s,0.975
same,proliferation Z-score within cell line,MDA-MB-436,0.825
same,proliferation Z-score within cell line,MDA-MB-453,0.697
same,proliferation Z-score within cell line,MDA-MB-468,1.05
same,proliferation Z-score within cell line,SKBR7,0.345
same,proliferation Z-score within cell line,SUM1315MO2,0.946
same,proliferation Z-score within cell line,SUM149PT,0.85
same,proliferation Z-score within cell line,SUM159PT,0.525
same,proliferation Z-score within cell line,SUM185PE,1.08
same,proliferation Z-score within cell line,SUM229PE,2.05
same,proliferation Z-score within cell line,SUM52PE,1
CC(=O)Nc1cccc(-n2c(=O)n(C3CC3)c(=O)c3c(Nc4ccc(I)cc4F)n(C)c(=O)c(C)c32)c1,proliferation Z-score within cell line,Bt20,-0.0485
same,proliferation Z-score within cell line,Bt549,-0.743
same,proliferation Z-score within cell line,HCC1143,-1.43
same,proliferation Z-score within cell line,HCC1806,-1.01
same,proliferation Z-score within cell line,HCC1937,-0.601
same,proliferation Z-score within cell line,HCC38,-0.305
same,proliferation Z-score within cell line,HCC70,-0.585
same,proliferation Z-score within cell line,Hs578T,-0.641
same,proliferation Z-score within cell line,MDA-MB-231,-1.31
same,proliferation Z-score within cell line,MDA-MB-435s,-1.13
same,proliferation Z-score within cell line,MDA-MB-436,-1.18
same,proliferation Z-score within cell line,MDA-MB-453,-0.799
same,proliferation Z-score within cell line,MDA-MB-468,-1.29
same,proliferation Z-score within cell line,SKBR7,0.727
same,proliferation Z-score within cell line,SUM1315MO2,-0.39
same,proliferation Z-score within cell line,SUM149PT,-1.87
same,proliferation Z-score within cell line,SUM159PT,-0.148
same,proliferation Z-score within cell line,SUM185PE,0.00168
same,proliferation Z-score within cell line,SUM229PE,-1.58
same,proliferation Z-score within cell line,SUM52PE,-1.02
O=S(=O)(NCCNCC=Cc1ccc(Br)cc1)c1cccc2cnccc12,proliferation Z-score within cell line,Bt20,0.937
same,proliferation Z-score within cell line,Bt549,0.582
same,proliferation Z-score within cell line,HCC1143,-2.14
same,proliferation Z-score within cell line,HCC1806,0.501
same,proliferation Z-score within cell line,HCC1937,-2.56
same,proliferation Z-score within cell line,HCC38,0.606
same,proliferation Z-score within cell line,HCC70,-0.751
same,proliferation Z-score within cell line,Hs578T,0.712
same,proliferation Z-score within cell line,MDA-MB-231,0.655
same,proliferation Z-score within cell line,MDA-MB-435s,0.921
same,proliferation Z-score within cell line,MDA-MB-436,-2.32
same,proliferation Z-score within cell line,MDA-MB-453,0.917
same,proliferation Z-score within cell line,MDA-MB-468,0.819
same,proliferation Z-score within cell line,SKBR7,-0.0696
same,proliferation Z-score within cell line,SUM1315MO2,1.2
same,proliferation Z-score within cell line,SUM149PT,0.458
same,proliferation Z-score within cell line,SUM159PT,-3.56
same,proliferation Z-score within cell line,SUM185PE,1.1
same,proliferation Z-score within cell line,SUM229PE,0.569
same,proliferation Z-score within cell line,SUM52PE,1.63
O=C(Nc1ccc(OC(F)(F)F)cc1)c1sccc1NCc1ccnc2ccccc12,proliferation Z-score within cell line,Bt20,0.429
same,proliferation Z-score within cell line,Bt549,0.615
same,proliferation Z-score within cell line,HCC1143,0.629
same,proliferation Z-score within cell line,HCC1806,1.22
same,proliferation Z-score within cell line,HCC1937,0.555
same,proliferation Z-score within cell line,HCC38,0.292
same,proliferation Z-score within cell line,HCC70,0.487
same,proliferation Z-score within cell line,Hs578T,0.399
same,proliferation Z-score within cell line,MDA-MB-231,0.697
same,proliferation Z-score within cell line,MDA-MB-435s,0.628
same,proliferation Z-score within cell line,MDA-MB-436,0.463
same,proliferation Z-score within cell line,MDA-MB-453,0.726
same,proliferation Z-score within cell line,MDA-MB-468,0.485
same,proliferation Z-score within cell line,SKBR7,0.739
same,proliferation Z-score within cell line,SUM1315MO2,0.472
same,proliferation Z-score within cell line,SUM149PT,0.715
same,proliferation Z-score within cell line,SUM159PT,0.393
same,proliferation Z-score within cell line,SUM185PE,0.159
same,proliferation Z-score within cell line,SUM229PE,1.42
same,proliferation Z-score within cell line,SUM52PE,0.446
COc1cc2ncnc(Nc3ccc(O)c(Br)c3)c2cc1OC,proliferation Z-score within cell line,Bt20,0.0659
same,proliferation Z-score within cell line,Bt549,0.377
same,proliferation Z-score within cell line,HCC1143,0.0669
same,proliferation Z-score within cell line,HCC1806,0.0229
same,proliferation Z-score within cell line,HCC1937,0.578
same,proliferation Z-score within cell line,HCC38,0.378
same,proliferation Z-score within cell line,HCC70,0.488
same,proliferation Z-score within cell line,Hs578T,0.531
same,proliferation Z-score within cell line,MDA-MB-231,0.0636
same,proliferation Z-score within cell line,MDA-MB-435s,-1.02
same,proliferation Z-score within cell line,MDA-MB-436,0.399
same,proliferation Z-score within cell line,MDA-MB-453,0.373
same,proliferation Z-score within cell line,MDA-MB-468,-0.486
same,proliferation Z-score within cell line,SKBR7,0.0528
same,proliferation Z-score within cell line,SUM1315MO2,0.293
same,proliferation Z-score within cell line,SUM149PT,-0.646
same,proliferation Z-score within cell line,SUM159PT,0.273
same,proliferation Z-score within cell line,SUM185PE,0.286
same,proliferation Z-score within cell line,SUM229PE,-0.501
same,proliferation Z-score within cell line,SUM52PE,0.658
CN(C)CCOc1ccc(-c2nc(-c3ccncc3)c(-c3ccc4c(c3)CC/C4=N\O)[nH]2)cc1,proliferation Z-score within cell line,Bt20,1.62
same,proliferation Z-score within cell line,Bt549,1.01
same,proliferation Z-score within cell line,HCC1143,0.586
same,proliferation Z-score within cell line,HCC1806,1.39
same,proliferation Z-score within cell line,HCC1937,0.885
same,proliferation Z-score within cell line,HCC38,0.62
same,proliferation Z-score within cell line,HCC70,0.827
same,proliferation Z-score within cell line,Hs578T,0.757
same,proliferation Z-score within cell line,MDA-MB-231,0.983
same,proliferation Z-score within cell line,MDA-MB-435s,-1.31
same,proliferation Z-score within cell line,MDA-MB-436,1.34
same,proliferation Z-score within cell line,MDA-MB-453,0.803
same,proliferation Z-score within cell line,MDA-MB-468,1.32
same,proliferation Z-score within cell line,SKBR7,0.114
same,proliferation Z-score within cell line,SUM1315MO2,1.42
same,proliferation Z-score within cell line,SUM149PT,1.12
same,proliferation Z-score within cell line,SUM159PT,0.346
same,proliferation Z-score within cell line,SUM185PE,0.886
same,proliferation Z-score within cell line,SUM229PE,1.58
same,proliferation Z-score within cell line,SUM52PE,-1.06
